In PubChem BioAssay AID2147 (National Center for Advancing Translational Sciences (NCATS), 2009):
Screen size: about 230,000 compounds; about 3,600 (1.6%) were called active. Inconclusive means that the source gave no clear call. Such entries were picked first, then a sample of the others. Calls follow the shape of the dose curve; as a rule, active = well fitted inhibition curve with a large enough effect (not every such curve was filed as active); inconclusive = small, poorly fitted or top-dose-only effect, or another doubt; inactive = no such curve, though single readings can be large or run the other way. Potencies of inconclusive entries are doubtful fits and often do not repeat.

target: Lysine-specific demethylase 4E (Homo sapiens) (UniProt B2RXH2); assay: qHTS Assay for Inhibitors of Human Jumonji Domain Containing 2E (JMJD2E); settings: JMJD2E catalytic domain, FDH-coupled NADH fluorescence (FDH is formaldehyde dehydrogenase); series mostly up to 57.1 µM; activity change, negative = inhibition: at the top concentration
Sequence of UniProt B2RXH2 (B2RXH2 whole entry, looked up, the tested form may be a part): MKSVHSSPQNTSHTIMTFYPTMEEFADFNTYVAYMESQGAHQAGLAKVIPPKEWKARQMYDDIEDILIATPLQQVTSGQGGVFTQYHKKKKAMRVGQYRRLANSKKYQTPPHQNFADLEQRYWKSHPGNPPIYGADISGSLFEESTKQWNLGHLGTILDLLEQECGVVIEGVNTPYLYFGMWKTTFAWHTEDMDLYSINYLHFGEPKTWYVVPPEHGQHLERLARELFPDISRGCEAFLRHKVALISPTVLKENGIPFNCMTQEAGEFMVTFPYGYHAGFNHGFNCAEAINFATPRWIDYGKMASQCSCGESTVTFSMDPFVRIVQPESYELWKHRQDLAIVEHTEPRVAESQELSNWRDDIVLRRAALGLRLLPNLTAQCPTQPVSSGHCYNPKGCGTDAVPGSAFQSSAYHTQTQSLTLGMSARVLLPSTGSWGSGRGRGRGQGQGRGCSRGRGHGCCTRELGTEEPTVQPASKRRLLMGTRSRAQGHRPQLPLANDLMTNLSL
Also: nearly all actives have a fitted effect of over 50% in size.
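For activity change, negative = inhibition in this document: 0% = wells with enzyme and -100% = buffer wells without enzyme.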
Potency is read from the fitted curve at half-maximal effect; tags tell the direction and shape of the fitted curve.

Question: Which “activity change, negative = inhibition” value does the source give for `Fc1ccc(N2CCN(C3=Nc4cccc5cccc3c45)CC2)cc1` here?
Answer: inactive: -6.32%

Question: With `O=C(N/N=C/c1ccc(F)cc1)c1cc(-c2ccco2)nc2ccccc12` as the compound, how does the Potency read?
Answer: inconclusive: 28.2 µM [inhibitor, partial curve]

Question: For `COc1ccc(CN2CCN(C(=O)CC(C)C)CC2)c2ccccc12`, which Potency is on record?
Answer: inconclusive: 25.1 µM [inhibitor, single point]

Question: `COC(=O)Nc1cccn(Cc2c(Cl)cccc2Cl)c1=O` was tested. Which Potency did it give?
Answer: inconclusive: 25.1 µM [inhibitor, single point]

Question: Which Potency does the source give for `COc1ccc(OC)c(/C=C2/Sc3ccccc3C2=O)c1` here?
Answer: inconclusive: 7.94 µM [inhibitor, partial curve, poor fit]

Question: `CC(C)(C)NS(=O)(=O)c1ccc(CCC(=O)NCc2ccc3c(c2)OCO3)cc1` was tested. Which “activity change, negative = inhibition” value did it give?
Answer: inactive: -5.22%

Question: With `O=c1[nH]c(CN2CCN(CCO)CC2)nc2ccccc12` as the compound, how does the “activity change, negative = inhibition” value read?
Answer: inactive: 1.08%

Question: For `CSc1nc2nc3c(cc2c(=O)n1-c1cccc(C)c1)COC(C)(C)C3`, which “activity change, negative = inhibition” value is on record?
Answer: inactive: -15.4%

Question: Which Potency does the source give for `O=C(Cn1ncc2c3ccccc3n(Cc3ccccc3)c2c1=O)N1CCN(c2ncccn2)CC1` here?
Answer: inconclusive: 31.6 µM [inhibitor, partial curve]

Question: `Cc1ccc(C)c(C(=O)Nc2c(C(N)=O)oc3ccccc23)c1` was tested. Which Potency did it give?
Answer: inconclusive: 39.8 µM [inhibitor, single point]

Question: With `CCOc1ccc(CC(=O)Nc2sc(Cc3ccccc3)c(C)c2C(N)=O)cc1OCC` as the compound, how does the Potency read?
Answer: inconclusive: 14.1 µM [inhibitor, partial curve]

Question: With `Cc1cc(C)c(C(N)=O)c(NC(=O)Nc2ccccc2)n1` as the compound, how does the Potency read?
Answer: inconclusive: 31.6 µM [inhibitor, single point]

Question: How did the Potency turn out when `CC(=O)C(Sc1nn(C)c(=S)s1)C(=O)Nc1ccccc1` (centres undefined) was run?
Answer: inconclusive: 28.2 µM [inhibitor, single point]

Question: `C=CCn1c(SCC(=O)c2ccc(O)c(O)c2)nnc1-c1cccnc1` was tested. Which Potency did it give?
Answer: active: 3.55 µM

Question: `COc1cc(CCC(=O)Nc2ccc(Br)c(C(F)(F)F)c2)cc(OC)c1OC` was tested. Which “activity change, negative = inhibition” value did it give?
Answer: inactive: 0.656%

Question: With `O=C(CCCSc1ccccc1)Nc1nc(-c2ccco2)c(-c2ccco2)s1` as the compound, how does the Potency read?
Answer: inconclusive: 28.2 µM [inhibitor, partial curve]

Question: How did the “activity change, negative = inhibition” value turn out when `Cc1cc(NC(=O)CSc2nc(=O)cc(N)n2-c2ccc(Cl)cc2)no1` was run?
Answer: inactive: 3.45%

Question: With `N#C/C(=C/c1cccc(C(F)(F)F)c1)c1nc(CCN2C(=O)c3ccccc3C2=O)cs1` as the compound, how does the Potency read?
Answer: inconclusive: 3.16 µM [inhibitor, full curve]

Question: How did the “activity change, negative = inhibition” value turn out when `O=C(NC(=S)N1CCCCC1)c1cccnc1` was run?
Answer: inactive: -22.7%

Question: Which Potency does the source give for `O=C(CNCCc1ccccc1)N1CCc2ccccc2C1` here?
Answer: inconclusive: 39.8 µM [inhibitor, single point]

Question: Which Potency does the source give for `Cc1ccc(-c2nn(-c3cccc(F)c3)cc2CN(Cc2nccn2C)C(C)C)o1` here?
Answer: inconclusive: 28.2 µM [inhibitor, partial curve]

Question: Which Potency does the source give for `Cc1cccc2sc(NNC(=O)c3ccc(S(=O)(=O)N4CCCC(C)C4)cc3)nc12` (centres undefined) here?
Answer: inconclusive: 3.98 µM [inhibitor, single point]

Question: With `Cc1ccc(-n2c(-c3cccs3)nc3nc4ccccc4nc32)cc1` as the compound, how does the Potency read?
Answer: inconclusive: 7.94 µM [inhibitor, full curve]

Question: With `CCOC(=O)C1CCCN(S(=O)(=O)c2ccc(OC)c3ccccc23)C1` (centres undefined) as the compound, how does the Potency read?
Answer: inconclusive: 35.5 µM [inhibitor, single point]

Question: Which Potency does the source give for `CC1(C)Cc2c(sc(NC(=O)c3ccccc3)c2C(=O)O)CO1` here?
Answer: inconclusive: 25.1 µM [inhibitor, single point]

Question: How did the Potency turn out when `COCC(=O)Nc1sc2c(c1C(=O)OC)CCC(C)C2` (centres undefined) was run?
Answer: inconclusive: 39.8 µM [inhibitor, single point]

Question: `Cc1cccc(-n2ncc3c(N4CCC(C)CC4)ncnc32)c1` was tested. Which “activity change, negative = inhibition” value did it give?
Answer: inactive: -10.8%

Question: Which Potency does the source give for `CCN(CC)CCN1C(=O)C(=O)/C(=C(/O)c2cccc(OC)c2)C1c1ccccn1` (centres undefined) here?
Answer: inconclusive: 39.8 µM [inhibitor, single point]

Question: `Cc1cc(=O)[nH]c(CN2CCC(c3ccccc3)CC2)n1` was tested. Which Potency did it give?
Answer: inconclusive: 6.31 µM [inhibitor, single point]

Question: For `Cn1c(=O)c2c(nc(CN3CCN(CCO)CC3)n2CCc2ccccc2)n(C)c1=O`, which “activity change, negative = inhibition” value is on record?
Answer: inactive: 7.94%

Question: With `COc1ccc(CNC(=O)Nc2cccs2)cc1OC` as the compound, how does the “activity change, negative = inhibition” value read?
Answer: inactive: 7.04%

Question: Which “activity change, negative = inhibition” value does the source give for `CC(=O)N1CCc2ccccc2C1CC(=O)O` (centres undefined) here?
Answer: inactive: -0.296%

Question: For `CSc1nc(NCc2ccco2)c2sc3nc(C(C)C)c4c(c3c2n1)CC(C)(C)OC4`, which Potency is on record?
Answer: inconclusive: 39.8 µM [inhibitor, single point]

Question: For `C[C@@]12CCC=C[C@H]1[C@H](c1ccc(F)c(/C=C/c3ccccc3)c1)N(Cc1ccccc1)C2=O`, which Potency is on record?
Answer: inconclusive: 35.5 µM [inhibitor, single point]

Question: With `CC(C)=CCc1c(O)ccc2c1OC(c1ccc(O)c(O)c1)CC2=O` (centres undefined) as the compound, how does the Potency read?
Answer: inconclusive: 28.2 µM [inhibitor, single point]

Question: For `CCOC(=O)c1c(C)[nH]c(=S)c(C#N)c1-c1ccc(OC)cc1`, which Potency is on record?
Answer: inconclusive: 39.8 µM [inhibitor, single point]

Question: How did the Potency turn out when `Cn1c(=O)c(=O)n(C)c2cc(S(=O)(=O)N3CCCC3C(=O)NCc3cccnc3)ccc21` (centres undefined) was run?
Answer: inconclusive: 35.5 µM [inhibitor, single point]

Question: Which “activity change, negative = inhibition” value does the source give for `O=C(CCCC(=O)NCc1ccc(F)cc1)NCc1ccc(F)cc1` here?
Answer: inactive: 8.31%

Question: How did the Potency turn out when `CCSc1nc2c(c(-c3ccc(C)o3)c1C#N)CCCC2` was run?
Answer: inconclusive: 31.6 µM [inhibitor, single point]

Question: With `O=C(Oc1ccc2c(=O)c(Oc3ccc4ccccc4c3)coc2c1)c1cncc(Br)c1` as the compound, how does the Potency read?
Answer: active: 11.2 µM

Question: `Cc1cc(C)c(S(=O)(=O)/N=C2/C=C(SCC(=O)O)C(=O)c3ccccc32)cc1C` was tested. Which Potency did it give?
Answer: inconclusive: 3.55 µM [inhibitor, single point]

Question: `CC1=CC=CC2=NC(=O)CC(C)(C(=O)N(CC(=O)NC3CCCC3)c3ccccc3C)N12` (centres undefined) was tested. Which Potency did it give?
Answer: inconclusive: 31.6 µM [inhibitor, partial curve]

Question: How did the Potency turn out when `O=C(COC(=O)c1cc(-c2ccc(Cl)s2)nc2ccccc12)NCc1ccco1` was run?
Answer: inconclusive: 15.8 µM [inhibitor, partial curve]

Question: How did the “activity change, negative = inhibition” value turn out when `NS(=O)(=O)c1ccc(CCNC(=O)C2CCC(CNS(=O)(=O)c3ccc(Br)s3)CC2)cc1` (centres undefined) was run?
Answer: inactive: 5.02%

Question: How did the Potency turn out when `O=C(CSc1nccc(-c2cccs2)n1)Nc1ccc(F)c(Cl)c1` was run?
Answer: inconclusive: 39.8 µM [inhibitor, single point]

Question: How did the Potency turn out when `C/C(=C\c1ccccc1)CN1CCC(C(=O)N2CCCCC2)CC1` was run?
Answer: inconclusive: 31.6 µM [inhibitor, single point]

Question: Which Potency does the source give for `C/C(=N\NC(=O)CCC(=O)Nc1ccccc1)c1cccs1` here?
Answer: inconclusive: 7.08 µM [inhibitor, single point]

Question: Which “activity change, negative = inhibition” value does the source give for `Cn1c(CSCC(=O)Nc2ccccc2)nnc1SCc1ccccc1` here?
Answer: inactive: -1.73%

Question: Which Potency does the source give for `CCCCn1c(SCC(=O)NC(C)CC)nc2ccc(N3CCOCC3)cc2c1=O` (centres undefined) here?
Answer: inconclusive: 35.5 µM [inhibitor, single point]

Question: Which Potency does the source give for `O=C(Oc1ccc(Cl)c2cccnc12)c1cccc([N+](=O)[O-])c1` here?
Answer: inconclusive: 35.5 µM [inhibitor, single point]

Question: How did the Potency turn out when `COc1ccc(S(=O)(=O)NCCC(=O)NC(C)c2ccccc2)cc1` (centres undefined) was run?
Answer: inconclusive: 39.8 µM [inhibitor, single point]

Question: How did the Potency turn out when `CCN(CC)CCNC(=O)c1cc2c(=O)n(C)c3ccccc3c2n1C` was run?
Answer: inconclusive: 22.4 µM [inhibitor, partial curve]

Question: `C=CCc1cccc(/C=N/NC(=O)CCCNc2ccc(C)cc2)c1O` was tested. Which Potency did it give?
Answer: inconclusive: 35.5 µM [inhibitor, single point]

Question: With `O=C(COC(=O)CCS(=O)(=O)c1ccc(Cl)cc1)Nc1ncc(Cl)cc1Cl` as the compound, how does the Potency read?
Answer: inconclusive: 22.4 µM [inhibitor, single point]

Question: With `COc1ccc2nc(/C=N/NC(=O)CCCCCNC(=O)OC(C)(C)C)ccc2c1` as the compound, how does the Potency read?
Answer: inconclusive: 8.91 µM [inhibitor, partial curve]

Question: For `CC(C)c1onc(C(=O)N2CCOCC2)c1[N+](=O)[O-]`, which “activity change, negative = inhibition” value is on record?
Answer: inactive: 8.35%

Question: With `COc1ccc(-c2nc(-c3ccc(Br)o3)no2)cc1OC` as the compound, how does the Potency read?
Answer: inconclusive: 39.8 µM [inhibitor, single point]

Question: `CCOC(=O)CCCSc1nc2sc3c(c2c(=O)[nH]1)CCC3` was tested. Which “activity change, negative = inhibition” value did it give?
Answer: inactive: -10.3%

Question: `N#Cc1c(-c2c(Cl)cccc2Cl)noc1/C=C/Nc1ccc(C(=O)O)cc1` was tested. Which Potency did it give?
Answer: inconclusive: 31.6 µM [inhibitor, partial curve]

Question: With `Fc1ccc(NC(=S)Nc2cccnc2)c(F)c1F` as the compound, how does the Potency read?
Answer: inconclusive: 35.5 µM [inhibitor, single point]

Question: How did the Potency turn out when `O=C(COC(=O)c1ccc[nH]c1=O)NC1CCCCCC1` was run?
Answer: inconclusive: 39.8 µM [inhibitor, single point]

Question: With `Cn1c(C(=O)NCc2ccccn2)cc2c(=O)n(C)c3ccccc3c21` as the compound, how does the Potency read?
Answer: inconclusive: 31.6 µM [inhibitor, partial curve]

Question: How did the “activity change, negative = inhibition” value turn out when `CC(=O)c1c(C)[nH]c(C(=O)NCCc2ccccc2)c1C` was run?
Answer: inactive: 3.69%

Question: For `O=C(CSc1nc2ccccc2s1)Nc1ccc(N2CCOCC2)c(Cl)c1`, which “activity change, negative = inhibition” value is on record?
Answer: inactive: -4.58%

Question: How did the Potency turn out when `CCOC(=O)c1c(C)[nH]c(C(=O)COC(=O)c2oc3ccc(OC)cc3c2C)c1C` was run?
Answer: inconclusive: 10 µM [inhibitor, partial curve]

Question: With `c1cncc(-c2nnc(-c3cccs3)o2)c1` as the compound, how does the Potency read?
Answer: inconclusive: 31.6 µM [inhibitor, partial curve]

Question: How did the Potency turn out when `COc1nc(C)nc2c1sc1nc3c(cc12)COC(C)(C)C3` was run?
Answer: inconclusive: 28.2 µM [inhibitor, partial curve]

Question: For `CCN1CCN(C(=O)c2cnn3c(C(F)F)cc(-c4ccc(C)cc4)nc23)CC1`, which Potency is on record?
Answer: inconclusive: 31.6 µM [inhibitor, partial curve]

Question: Which Potency does the source give for `CC(=O)N1C(=O)c2cccc3cccc(c23)C(=O)N1C(C)=O` here?
Answer: inconclusive: 31.6 µM [inhibitor, partial curve]
